Results on 90 molecules are retold here after PMC4336329 (PLoS ONE, 2015).

Out of some 310,000 compounds screened, about 14,000 (4.5%) showed an effect of 50% or more. Effects have a minus sign here. This is one part of the list.
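Further: peak tail current of the secondary pulse compared with the same well before compound.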

In the assay the target is human ether-à-go-go-related gene (hERG) potassium channel (human, UniProt Q12809). Description: primary screen, population patch clamp on CHO cells stably expressing hERG.
Sequence of human ether-à-go-go-related gene (hERG) potassium channel (Q12809 whole entry, looked up): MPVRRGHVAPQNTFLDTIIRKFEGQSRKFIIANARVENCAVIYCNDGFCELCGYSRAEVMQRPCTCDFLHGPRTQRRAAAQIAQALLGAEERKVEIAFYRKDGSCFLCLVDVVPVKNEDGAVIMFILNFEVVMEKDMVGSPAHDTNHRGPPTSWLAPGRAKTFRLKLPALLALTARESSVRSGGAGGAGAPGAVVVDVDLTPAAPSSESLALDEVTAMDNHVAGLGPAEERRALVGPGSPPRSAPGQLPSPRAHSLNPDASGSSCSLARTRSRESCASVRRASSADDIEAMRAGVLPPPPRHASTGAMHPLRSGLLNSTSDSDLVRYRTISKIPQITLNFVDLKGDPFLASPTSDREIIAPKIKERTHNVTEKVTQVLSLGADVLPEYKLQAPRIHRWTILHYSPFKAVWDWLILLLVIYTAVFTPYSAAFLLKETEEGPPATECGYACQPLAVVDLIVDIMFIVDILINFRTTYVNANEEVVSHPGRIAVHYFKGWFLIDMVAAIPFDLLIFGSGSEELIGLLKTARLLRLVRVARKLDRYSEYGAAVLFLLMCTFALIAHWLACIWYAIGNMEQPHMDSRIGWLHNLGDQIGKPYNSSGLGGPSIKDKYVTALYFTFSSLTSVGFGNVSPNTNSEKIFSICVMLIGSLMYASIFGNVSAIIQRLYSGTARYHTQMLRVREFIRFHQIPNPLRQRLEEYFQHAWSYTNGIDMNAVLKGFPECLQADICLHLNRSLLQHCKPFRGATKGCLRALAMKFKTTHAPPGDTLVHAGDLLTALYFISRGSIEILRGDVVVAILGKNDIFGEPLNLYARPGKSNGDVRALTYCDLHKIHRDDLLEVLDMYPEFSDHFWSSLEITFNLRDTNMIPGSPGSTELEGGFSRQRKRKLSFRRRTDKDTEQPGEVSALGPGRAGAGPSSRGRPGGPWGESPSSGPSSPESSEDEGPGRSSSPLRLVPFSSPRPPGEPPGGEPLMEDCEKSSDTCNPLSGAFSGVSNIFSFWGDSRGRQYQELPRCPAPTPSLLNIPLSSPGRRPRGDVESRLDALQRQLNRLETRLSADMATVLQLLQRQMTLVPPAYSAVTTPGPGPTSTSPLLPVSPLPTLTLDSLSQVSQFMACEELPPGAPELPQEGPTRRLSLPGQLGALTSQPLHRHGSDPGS
For `CCC(C)[C@H](NC(=O)N1CCC(C)CC1)C(=O)OC` (stereo partly drawn), the “hERG current change (%, negative = inhibition) at 10uM” value worked out at 16.7%.
For `Cn1c(O)c(/C=C2\N=c3ccccc3=C2CCNC(=S)NC2CC2)c(=O)n(C)c1=O` the value was -44.6%; for `Cc1ccnc(SCc2ccc([N+](=O)[O-])cc2)n1`, -19.1%.
The value for `COc1ccc(NC(=O)CN2C(=O)NC(CC(C)C)C2=O)cc1S(=O)(=O)N1CCOCC1` (stereo not drawn) was 11%; that for `N#CC1=C(S)N(c2ccccc2)C(c2ccc(-c3cc(Cl)ccc3Cl)o2)NC1=O` (stereo not drawn) was 6.41%.
For `CCOC(=O)Cn1nc(C(F)F)c(Br)c1C` the value was 39.6%.
On to `Cc1nn(Cc2ccccc2Cl)c2sc(C(=O)NC(C)(C)C)cc12`, for which the “hERG current change (%, negative = inhibition) at 10uM” value was 10.7%.
The value for `Cc1c(NC(=O)CCC(=O)N2CCOCC2)c(=O)n(-c2ccccc2)n1C` was 1.09%; that for `CN(C)S(=O)(=O)c1ccc(C(=O)Oc2ccccc2)cc1` was 7.17%.
For `CN(C)C1=NCCN1CCCC1CCCC1` the value was -51%.
For the molecule `NC(=O)c1c(NC(=O)c2ccccc2F)sc2c1CCCC2`, the “hERG current change (%, negative = inhibition) at 10uM” value is 22%.
For `N#Cc1cc2c(ccc3ccccc32)oc1=O`, the “hERG current change (%, negative = inhibition) at 10uM” value is listed as 21.7%.
For `COc1cccc(Nc2nnc(SCc3cc([N+](=O)[O-])cc4c3OCOC4)s2)c1` the value was -4.71%; for `C/C(=N/NC(=O)CNC(=O)COc1ccccc1)c1ccc(Cl)cc1`, 13.2%; for `O=C(CN1C(=O)S/C(=C\C=C\c2ccccc2)C1=O)Nc1ccc(O)cc1`, 6.72%.
The value for `CC1CCC(C(C)C)C(OCC(O)CNC(C)C)C1.Cl` (stereo not drawn) was -3.65%.
For the molecule `Cc1ccc(CCNC(=O)Cn2ncc3c([nH]c4ccccc43)c2=O)cc1`, the “hERG current change (%, negative = inhibition) at 10uM” value is reported as 14.8%.
The value for `Cc1c(C#N)c2ccccc2n1CC(=O)NC(C)c1ccccc1` (stereo not drawn) was -5.59%; that for `Cc1ccc(NC(=O)/C=C\C(=O)O)c([N+](=O)[O-])c1` was 21.4%.
For `Cc1ccc(C(=O)Nc2ccc(Cl)cc2C)c(Cl)c1` the value was 13.2%.
With `COc1ccc(CNCc2c(F)cccc2F)cc1OC.O=C(O)C(=O)O`, the “hERG current change (%, negative = inhibition) at 10uM” value is 3.43%.
Regarding `COc1cccc(CN(C)C(=O)c2ccccc2Sc2ccccc2C#N)c1OC`, the “hERG current change (%, negative = inhibition) at 10uM” value is given as -16.6%.
For `NS(=O)(=O)c1ccc(CNC(=O)c2scc3c2CCCC3)cc1` the value was -18.8%; for `CCc1ccccc1NC(=O)CSc1nnc(-c2ccncc2)o1`, 0.695%; for `O=C(COC(=O)Cc1ccsc1)Nc1cccc(Cl)c1`, -8.02%.
On to `CS(=O)(=O)Nc1ccc(-c2n[nH]c(=S)n2-c2ccccc2)cc1`, for which the “hERG current change (%, negative = inhibition) at 10uM” value is on record as -4.45%.
The value for `CCN(CC)C(=O)c1ccc(S(=O)(=O)N2CCC(c3nc4ccccc4s3)CC2)cc1` was -8.31%.
The value for `CCOc1ccc(OCC(=O)Nc2ccc(OC)cc2[N+](=O)[O-])cc1` was 3.3%; that for `COc1cccc(NC(=O)C2CCC(CNS(=O)(=O)c3cccs3)CC2)c1` (stereo not drawn) was 7.92%.
In the case of `Cc1nc(-c2ccccc2)nc2sc(C(=O)c3ccc(F)cc3)c(N)c12`, the “hERG current change (%, negative = inhibition) at 10uM” value is on record as 5.03%.
`CCOc1ccc(Nc2nc(N3CCCCC3)nc(N3CCCCC3)n2)cc1`: the “hERG current change (%, negative = inhibition) at 10uM” value amounted to 4.1%.
`COc1ccc(N(C(=O)Cn2nnc3ccccc32)C(C(=O)NC(C)(C)C)c2ccc(OC)c(O)c2)cc1` (stereo not drawn): the “hERG current change (%, negative = inhibition) at 10uM” value came to 3.1%.
For the molecule `NC(=S)N=Nc1c(O)n(Cc2ccc(Br)cc2)c2ccccc12`, the “hERG current change (%, negative = inhibition) at 10uM” value is recorded as 15.2%.
Regarding `Cc1c(CNC2CCCC2)c(C(=O)O)c(C)n1Cc1ccccc1`, the “hERG current change (%, negative = inhibition) at 10uM” value is reported as 2.8%.
For `CCOC(=O)/C=C/C(=O)Nc1ccc(S(=O)(=O)Nc2nccs2)cc1` the value was 9.64%; for `COc1ccc(NS(=O)(=O)c2csc(C(=O)Nc3ccccc3)c2)cc1`, 10.8%; for `CCC1(C)NC(=O)N(CC(=O)N2CCC(Cc3ccccc3)CC2)C1=O` (stereo not drawn), 3.65%.
For `O=C(c1ccc(Cl)cc1)c1ccc(OCC(O)CN2CCCCC2)cc1` (stereo not drawn) the value was -75.1%.
As to `COC(=O)c1ccc2c(=O)n(-c3ccccc3)c(=S)[nH]c2c1`, the “hERG current change (%, negative = inhibition) at 10uM” value was found to be 19.1%.
Consider `N#Cc1ccc(NC(=O)Cn2cnc(S(=O)(=O)N3CCCC3)c2)cc1`, for which the “hERG current change (%, negative = inhibition) at 10uM” value turned out to be 22.3%.
For `CN(C(=O)CCS(=O)(=O)c1cc2c(cc1Cl)NC(=O)CO2)C1CCCCC1` the value was -38.4%; for `CC(=NCc1ccco1)c1c(C)[nH]n(-c2nc3ccccc3s2)c1=O`, 3.78%.
As to `CC(C(=O)Nc1ccc2c(c1)OCCO2)N(c1ccccc1)S(C)(=O)=O` (stereo not drawn), the “hERG current change (%, negative = inhibition) at 10uM” value is -2%.
`CCCCCCCCC(=O)N/N=C(\C)c1ccco1`: the “hERG current change (%, negative = inhibition) at 10uM” value is 6.19%.
As to `COc1ccc(S(=O)(=O)[O-])cc1P(=O)(c1ccccc1)c1ccccc1.[Na+]`, the “hERG current change (%, negative = inhibition) at 10uM” value turned out to be 8.93%.
The value for `CC(C)CNC(=O)c1cccc(NC(=O)Cc2ccc(Br)cc2)c1` was -1.89%; that for `COc1ccc(C2=NN(CC(=O)NCc3ccco3)C(=O)CC2)cc1` was 5.85%.
For `CCCCc1ccc(NC(=S)NCc2cccs2)cc1` the value was 23.1%; for `CC(=O)N1CCN(c2nc(-c3cccs3)nc3ccccc23)CC1`, -63.2%.
Regarding `CCCCNC(=S)N/N=C/c1ccc(C#N)cc1`, the “hERG current change (%, negative = inhibition) at 10uM” value came out at 19.3%.
For `CC(C)(C)NC(=O)COC(=O)c1cc(F)c(F)cc1Cl` the value was 3.04%; for `CS(=O)(=O)N(CC(=O)NCc1ccco1)c1ccc(Cl)c(C(F)(F)F)c1`, -7.47%; for `COc1ccc(-c2cc(C(=O)O)nc3ccc4ccccc4c23)cc1OC`, 12.6%.
For `CN(C)S(=O)(=O)c1ccc(N2CCCC2)c(C(=O)NNC(=O)COc2ccccc2F)c1` the value was -61.4%; for `O=C(NCCCn1ccnc1)c1ccco1`, -4.47%.
Regarding `CSCCC(NC(=O)c1cncc(Br)c1)C(=O)O` (stereo not drawn), the “hERG current change (%, negative = inhibition) at 10uM” value is reported as 2.23%.
The value for `CCCNC(=O)COc1ncnc2sccc12` was 2.7%; that for `CCN1CCSc2ccc(C(=O)NCc3ccccc3C)cc21` was -3.53%; that for `COc1ccc(OC)c(C2C(C(=O)c3ccco3)=C(O)C(=O)N2CCN2CCOCC2)c1` (stereo not drawn) was 12.7%.
For `O=C(c1cccc(NS(=O)(=O)c2ccccc2)c1)N1CCCCC1`, the “hERG current change (%, negative = inhibition) at 10uM” value is given as -2.47%.
As to `CN1Cc2ccccc2CC1CNCc1c(C(=O)N2CCCC2)nc2ccccn12` (stereo not drawn), the “hERG current change (%, negative = inhibition) at 10uM” value is -73.5%.
For `Cc1ccc(-n2nnnc2SCc2ccc(C(=O)O)cc2)cc1C` the value was -70.7%; for `CCOC(=O)N1CCN(C(=O)Nc2ccccc2Cl)CC1`, 9.66%.
The value for `CC(C)(C)NS(=O)(=O)c1cc(C(=O)Nc2sccc2C#N)ccc1Cl` was 4.98%; that for `CCOc1ccccc1NC(=O)Nc1ccc(Cl)cc1` was -10.1%; that for `Cc1n(CC(O)COC2CCCCC2)c2ccccc2[n+]1C.[I-]` (stereo not drawn) was 4.89%.
`CC(=O)c1c(C)[nH]c(C(=O)OCC(=O)N(C)C)c1C`: the “hERG current change (%, negative = inhibition) at 10uM” value is -2.26%.
Turning to `Cc1cccc(N2CCN(C(=O)c3ccc4c(c3)CCN4S(C)(=O)=O)CC2)c1C`, the “hERG current change (%, negative = inhibition) at 10uM” value is -14.8%.
Take `O=[N+]([O-])c1cccnc1Oc1ccc(OCc2ccccc2)cc1`: the “hERG current change (%, negative = inhibition) at 10uM” value was determined as 3.86%.
In the case of `COc1cc(N)cc(NC(=O)c2ccncc2)c1`, the “hERG current change (%, negative = inhibition) at 10uM” value amounted to 15.5%.
For the molecule `CCCCc1nnc(NC(=O)CSc2nc(=O)cc(N)n2-c2ccccc2)s1`, the “hERG current change (%, negative = inhibition) at 10uM” value is listed as -24%.
For `CS(=O)(=O)N(CCc1ccccc1)CC(=O)N1CCN(c2ccccc2)CC1` the value was 15%; for `Cn1c(SCC(=O)Nc2ccc3c(c2)n(C)c(=O)n3C)nnc1-c1ccncc1`, 43.5%.
Take `NC(=O)NC(=O)COC(=O)CCCc1c[nH]c2ccccc12`: the “hERG current change (%, negative = inhibition) at 10uM” value turned out to be 5.09%.
Take `C[C@H](NC(=O)c1ccc(Br)cc1)C(=O)NCc1ccc(S(N)(=O)=O)cc1`: the “hERG current change (%, negative = inhibition) at 10uM” value is given as 15%.
For `Cc1ccccc1CNC(=O)CN(c1ccccc1Cl)S(C)(=O)=O` the value was -8.64%; for `COc1cc(NC(=O)C(C)Oc2ccccc2)c(OC)cc1NC(=O)c1ccccc1` (stereo not drawn), 7.29%.
The value for `Cc1ccc(NC2=NC(c3ccccc3)n3c(nc(C)cc3=O)N2)c(C)c1` (stereo not drawn) was -1.11%.
For `O=C(O)C1CCCN(S(=O)(=O)c2ccc(Br)cc2)C1` (stereo not drawn) the value was -2.36%; for `CCCCn1c(N)c(N(CCOC)C(=O)c2ccc(Br)o2)c(=O)[nH]c1=O`, 19.1%; for `Cc1cc(NC(=O)CCN2C(=O)C3C4C=CC(C4)C3C2=O)c2ccccc2n1` (stereo not drawn), 7.51%.
Regarding `CC1=C(C(=O)Nc2ccccc2)C(c2coc3ccccc3c2=O)C2=C(CCCC2=O)N1` (stereo not drawn), the “hERG current change (%, negative = inhibition) at 10uM” value is -5.86%.
The value for `COc1cc(C)c(Cl)cc1S(=O)(=O)NCC1CCCO1` (stereo not drawn) was 8.14%.
Take `O=S(=O)(/N=C(/Nc1ccccc1)c1ccccc1O)c1ccccc1`: the “hERG current change (%, negative = inhibition) at 10uM” value is given as -11.3%.
For `O=S(=O)(Cc1nnnn1-c1ccccc1)c1ccccc1` the value was 10.8%.
The value for `Cc1ccc(F)cc1NC(=O)c1cnccn1` was 26.8%; that for `Cc1ccccc1C(=O)NN1CCOCC1` was 6.4%; that for `N#Cc1ccc(OCC(=O)NC(=O)NC2CCS(=O)(=O)C2)cc1` (stereo not drawn) was -7.71%.
For `COC(=O)c1c(C)oc2ccc(OC(=O)N3CCOCC3)cc12` the value was -8.62%; for `CCN(Cc1ccccc1)C(=O)Cn1c(=O)n(-c2ccc(OC)cc2OC)c(=O)c2c(C)c(C)sc21`, 11.1%.
